Source: PubChem BioAssay AID1347428 (National Center for Advancing Translational Sciences (NCATS), 2020)
Out of some 91,000 compounds screened, about 290 (0.32%) were called active. This list was built around the results that the source calls inconclusive (neither active nor inactive); the mix of calls is not that of the screen. The call rests on the fitted dose curve; in most records, active means well fitted inhibition curve with a large enough effect; inconclusive means small, poorly fitted or top-dose-only effect; inactive means no such curve, though single readings can be large or run the other way. Potencies of inconclusive entries are doubtful fits and often do not repeat.

These compounds were tested against Single-stranded DNA cytosine deaminase (Homo sapiens) (UniProt Q9GZX7) (assay: Primary qHTS assay for inhibitors of Activation Induced Cytidine Deaminase (AID): AID signal). Details: AID deamination FRET fluorescence, UDG-coupled, 4 h; series mostly up to 115 µM; activity change, negative = inhibition: at the top concentration.
Further: nearly all actives have a fitted effect of over 25% in size.
On the % scale 0 is the no-effect control and ±100 the full control effect; potency means the concentration at half of the fitted maximal effect; tags describe the fitted curve by direction and shape.

UniProt Q9GZX7, sequence (Q9GZX7 whole entry, looked up): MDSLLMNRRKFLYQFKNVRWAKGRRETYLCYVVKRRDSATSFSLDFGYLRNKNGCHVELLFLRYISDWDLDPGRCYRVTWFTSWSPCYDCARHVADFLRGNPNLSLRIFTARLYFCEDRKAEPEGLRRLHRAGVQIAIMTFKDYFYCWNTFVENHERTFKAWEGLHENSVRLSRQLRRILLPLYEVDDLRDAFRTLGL

Compound	activity change, negative = inhibition	Potency
C[N+](C)(C)CC1CCC1	inactive: 5.01%	–
COc1ccc(CCNCc2cccc(Cl)c2)cc1	inactive: -12.5%	–
CC[C@@H](CO)NC(=O)[C@@H]1C=C2c3cccc4c3c(cn4C)C[C@H]2N(C)C1	–	inconclusive: 79.4 µM [inhibitor, single point]
O=C1C2CCCCC1CN(Cc1ccccc1)C2	inactive: -3.78%	–
CCOc1ccc(CN2CCN(c3cccc(C)c3C)CC2)cc1	inactive: -1.07%	–
CC(Nc1ccc([N+](=O)[O-])c2nonc12)c1ccccc1Cl (stereo not given)	–	inconclusive: 89.1 µM [inhibitor, single point]
O=c1oc2ccccc2c(O)c1C(c1ccccc1)c1c(O)c2ccccc2oc1=O	–	active: 44.7 µM
COCCNC(=O)NC(=O)CCl	inactive: 2.42%	–
Cc1ccc(-n2c(CC3C(=O)Nc4ccccc43)nc3ccccc3c2=O)cc1 (stereo not given)	inactive: 1.43%	–
Cc1ccccc1-n1c(/C=C/c2ccccc2F)nc2ccccc2c1=O	inactive: -8.84%	–
CC(Cc1cccc(Cl)c1)NC(=O)CCCNC(=O)C1CC1 (stereo not given)	inactive: 4.03%	–
CC(NC(C)c1ccc(Cl)cc1)C(=O)c1c[nH]c2ccccc12 (stereo not given)	inactive: -3.2%	–
Cc1cccc2c(CCN)c[nH]c12	inactive: 1.94%	–
Cc1cccc(CN2C(=O)CN=C(c3ccccc3Cl)c3cc(Cl)ccc32)c1	–	inconclusive: 39.8 µM [inhibitor, full curve, poor fit]
O=C(c1ccc2c(c1)N(Cc1c(F)cccc1Cl)C(=O)c1ccccc1S2)N1CCC2(CC1)OCCO2	–	inconclusive: 44.7 µM [inhibitor, partial curve, poor fit]
Cc1ccc(C)c(CN2C(=O)c3ccccc3Sc3ccc(C(=O)N4CCC5(CC4)OCCO5)cc32)c1	–	inconclusive: 15.8 µM [inhibitor, partial curve, poor fit]
Cc1ccc(-n2c(/C=C/c3cccc(C(F)(F)F)c3)nc3ccccc3c2=O)cc1	–	inconclusive: 20 µM [inhibitor, full curve, poor fit]
CCOc1ccc(CN2C(=O)c3ccccc3Sc3ccc(C(=O)N4CCC5(CC4)OCCO5)cc32)cc1	–	inconclusive: 89.1 µM [inhibitor, single point]
CC[C@@H](CO)NC(=O)[C@@H]1C=C2c3cccc4[nH]cc(c34)C[C@H]2N(C)C1	inactive: 34%	–
COc1ccccc1CNCCc1ccccc1	inactive: 2.67%	–
Cc1cccc(-n2c(/C=C/c3cccc4ccccc34)nc3ccccc3c2=O)c1	–	inconclusive: 14.1 µM [inhibitor, full curve, poor fit]
NC(N)=Nc1ccc2[nH]c3c(c2c1)C[C@@]1(O)[C@H]2Cc4ccc(O)c5c4[C@@]1(CCN2CC1CC1)[C@H]3O5	–	inconclusive: 50.1 µM [inhibitor, partial curve]
CC(NCCc1ccccc1)c1ccccc1 (stereo not given)	inactive: -11.9%	–
Cc1[nH]nc2c1C(c1ccc3c(c1)OCCO3)SCC(=O)N2 (stereo not given)	inactive: -5.94%	–
CC(C)NC(=O)NC(=O)CCl	inactive: -2.06%	–

Compound	activity change, negative = inhibition	Potency
COc1ccc(-c2nn3c(=O)cc(CN4CCN(C(=O)COc5ccc(F)cc5)CC4)nc3s2)cc1	inactive: 191%	–
CCc1ccc(C2SCC(=O)Nc3n[nH]c(C)c32)cc1 (stereo not given)	inactive: -7.41%	–
Brc1ccc(-c2ccc(CNC3CN4CCC3CC4)o2)cc1 (stereo not given)	inactive: -5.98%	–
O=C1CN=C(c2ccccc2)c2cc(Cl)ccc2N1Cc1ccc(Cl)cc1	–	inconclusive: 79.4 µM [inhibitor, partial curve, poor fit]
CC(NC(C)c1ccccc1F)C(=O)c1c[nH]c2ccccc12 (stereo not given)	inactive: -2.78%	–
CC12CCC3C(CCC4C/C(=N\O)CCC43C)C1CCC2O (stereo not given)	inactive: 0.768%	–
O=C(c1ccc2c(c1)N(Cc1ccc(F)cc1Cl)C(=O)c1ccccc1S2)N1CCC2(CC1)OCCO2	–	inconclusive: 14.1 µM [inhibitor, full curve, poor fit]
CC(C)(C)CC(C)(C)NCCc1ccccc1	inactive: -6.43%	–
COC1C(O)C(C)OC(OC2CCC3(C)C(CC[C@@H]4[C@@H]3CCC3(C)C(C5=CC(=O)OC5)C(O)CC43O)C2)C1O (stereo not given in full)	inactive: 4.07%	–
CSc1ccc(C(c2c(O)c3ccccc3oc2=O)c2c(C)n(C)n(-c3ccccc3)c2=O)cc1 (stereo not given)	–	inconclusive: 56.2 µM [inhibitor, partial curve, poor fit]
N#Cc1cc2c(nc1SCC(=O)Nc1cccc(F)c1)C1CCN2CC1	inactive: 11.2%	–
CC(Cc1ccc(Cl)cc1)NC(=O)CCCNC(=O)C1CC1 (stereo not given)	inactive: 3.82%	–
O=C(Nc1ccc2c(c1)OCCO2)c1cccn(Cc2cccc([N+](=O)[O-])c2)c1=O	–	inconclusive: 100 µM [inhibitor, single point]
COc1ccc2[nH]c3c(c2c1)CCNC3	inactive: -9.36%	–
O=C(COc1ccccc1[N+](=O)[O-])N1CCN(CCc2ccncc2)CC1	inactive: 9.21%	–
C=CCNC(=O)c1c(N)n(Cc2ccccc2)c2nc3ccccc3nc12	–	inconclusive: 44.7 µM [inhibitor, partial curve, poor fit]
COc1ccc(C)cc1NC(=O)c1cccn(Cc2ccccc2Cl)c1=O	–	inconclusive: 100 µM [inhibitor, partial curve, poor fit]
C=CCNC(=O)CSC(c1ccccc1)c1ccc(Cl)cc1 (stereo not given)	inactive: -9.7%	–
Cc1ccc(-n2c(/C=C/c3ccccc3)nc3ccccc3c2=O)cc1Cl	–	inconclusive: 39.8 µM [inhibitor, full curve]
N#Cc1ccccc1NC(=O)c1cccn(Cc2ccccc2)c1=O	–	inconclusive: 89.1 µM [inhibitor, single point]
CCCCc1ccc2[nH]c(C)c(CCN)c2c1	inactive: -4.45%	–
O=[N+]([O-])/C=C\c1ccc2c(c1)OCO2	inactive: -0.165%	–
COc1ccc(-c2nc(CN3C(=O)CN=C(c4ccccc4Cl)c4cc(Cl)ccc43)c(C)o2)cc1OC	–	inconclusive: 28.2 µM [inhibitor, partial curve, poor fit]
CCCc1ccc(OCC(=O)Nc2ccc(Cl)cc2C(=O)c2ccccc2)cc1	inactive: -2.51%	–
Cc1cccc(CN2C(=O)CN=C(c3ccccc3)c3cc(Cl)ccc32)c1	–	inconclusive: 50.1 µM [inhibitor, partial curve, poor fit]
